Laboratory results taken from PubChem BioAssay AID493208 (National Center for Advancing Translational Sciences (NCATS), 2011).
Screen size: about 44,000 compounds; about 340 (0.77%) were called active. Roughly 5% stayed inconclusive and do not appear here. The call rests on the fitted dose curve; in most records, active means well fitted inhibition curve with a large enough effect; inconclusive means small, poorly fitted or top-dose-only effect; inactive means flat fitted curve, though single readings scatter. This is one part of the list.

Assay: Acumen qHTS Assay for Inhibitors of the mTORC1 Signaling Pathway in MEF (Tsc2-/-, p53-/-) Cells: Sytravon;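 further: plate controls were DMSO for no effect and rapamycin for full effect; nearly all actives have a fitted effect of over 50% in size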
Conditions: phospho-rpS6 immunofluorescence/PI, 24 h; series mostly up to 38.3 µM; activity change, negative = inhibition: at the top concentration
Outline: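 Readout is phospho-S6 Alexa 488 signal normalized to PI per well, reported as % active cells with thresholds set from rapamycin (7.5 nM) and DMSO controls. Cells: Tsc2-/-, p53-/- MEFs, 24 hrs compound at 37 C; PI cell number serves as viability.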

Activity change, negative = inhibition, inactive:
Cc1cccc(NC(=O)CSc2nc3ccccc3nc2N2CCCCC2)c1C -4.1%
COc1cc(NC(=O)C(Cc2ccccc2)NS(=O)(=O)c2cccc3nsnc23)cc(OC)c1 (stereo not drawn) 0.385%
COc1ccc(Br)cc1CNC(=O)c1ccc2c(c1)nc1n2CCC(C)C1 (stereo not drawn) 1.8%
O=C(Cn1ccn(-c2ccc(F)c(F)c2)c(=O)c1=O)NCCc1ccccc1 -22%
Cc1cc(C)cc(NC(=O)c2cc(S(=O)(=O)N3CCC(C)CC3)cn2C)c1 -2.65%
CC(=O)c1cccc(NC(=O)CCc2c(C)nc3c(c(C)nn3-c3ccccc3)c2C)c1 -1.27%
CCCCNc1nc(Oc2ccc(=O)n(C)n2)nc(N2CCOCC2)n1 1.7%
O=C(CCC1N=C2c3ccccc3N=C(SCc3cccc(Cl)c3)N2C1=O)N1CCN(c2ccccc2)CC1 (stereo not drawn) -2.74%
CCOc1ccc(-c2cc3c(=O)n(CC(=O)Nc4cc(F)ccc4C)ccn3n2)cc1 8.57%
Cc1cc(C)c2c(=O)cc(C(=O)Nc3c(C)n(C)n(-c4ccccc4)c3=O)oc2c1 -3.31%
COc1ccc(C(=O)c2c(N)c(-c3nc(-c4ccc(OC)cc4)cs3)c3ccccn23)cc1 0.902%
COc1cc2[nH]c(=O)n(CCC(=O)N3CCN(c4ccc(Cl)cc4)CC3)c(=O)c2cc1OC -19%
CCn1nc(-c2ccccc2)c(-c2ccccc2)c(C(=O)Nc2ccccc2C#N)c1=O 0.0943%
Cc1cc(C)c(/C=C/c2onc(C)c2S(=O)(=O)N2CCC(C(=O)NCc3ccccc3Cl)CC2)c(C)c1 4.75%
COc1ccc(S(=O)(=O)c2c(O)c3ccc(C(=O)NCc4ccc(Cl)cc4)cc3[nH]c2=O)cc1 0.781%
CCOC(=O)C1CCN(C(=O)Cn2ncc3c4ccccc4n(Cc4ccc(F)cc4)c3c2=O)CC1 -4.9%
Cc1csc2nc(COc3ccc(NC(=O)COc4ccccc4)cc3)cc(=O)n12 0.0593%
C=CCc1ccccc1OCc1nc2ccccc2n1CC 2.99%
CCN(Cc1ccccc1)C(=O)Cn1c(=O)n(-c2cccc(C)c2)c(=O)c2c1c1cc(C)ccc1n2C -4.41%
Cc1ccc2oc3c(c(=O)c2c1)C(c1ccc([N+](=O)[O-])cc1)N(CCCN1CCOCC1)C3=O (stereo not drawn) 1.36%
O=C(CN1C(=O)c2cccnc2Oc2ccc(Cl)cc21)NCCc1ccccc1 -8.4%
CC(C)(C)C(=O)Cn1c(=O)n(-c2ccccc2)c(=O)c2c3c(sc21)CCC3 6.99%
Cc1ccc(NC(=O)CN2C(=O)COc3ccc(S(=O)(=O)NC4CCCC4)cc32)cc1Cl -1.5%
Cc1cc(NC(=O)CSc2ncc(C(=O)Nc3ccc(Cl)cc3)c(=O)n2C)no1 -3.44%
Cc1ccc(CNC(=O)CN(c2cccc(C)c2C)S(=O)(=O)c2ccccc2)cc1 3.15%
CCC(CC)C(=O)Nc1ccc2nc(SCC(=O)N3CCc4ccccc43)sc2c1 -0.476%
CCOC(=O)c1c(-c2ccc(C)cc2)csc1NC(=O)c1cc(-c2ccc(C)c(F)c2)on1 1.77%
CCCCNc1ccc(-c2nc(-c3ccco3)no2)cc1[N+](=O)[O-] -0.909%
CCOc1ccc(C(=O)Nc2cccc(NC(=O)c3ccc(C(C)(C)C)cc3)c2)cc1Br 9.19%
Cn1c2ccccc2c2cnn(CC(=O)N3CCN(c4cccc(C(F)(F)F)c4)CC3)c(=O)c21 -7.59%
Cc1cccc(N2CCN(S(=O)(=O)c3cc(Cl)ccc3Cl)CC2)c1C -21.7%
CC(=O)c1cccc(NC(=O)C2CCCN(C(=O)c3cnn(-c4ccccc4)c3-n3cccc3)C2)c1 (stereo not drawn) -2.29%
COc1ccc(-c2nc(SCC(=O)Nc3ccc4c(c3)OCCO4)c(-c3ccc(F)cc3)[nH]2)cc1OC -9.49%
COc1ccc(CC(=O)NCc2ccc3c(c2)CCN3C(C)=O)cc1 0.595%
O=C(c1ccc2c(c1)N(Cc1ccc(F)cc1)C(=O)c1ccccc1S2(=O)=O)N1CCN(Cc2ccccc2)CC1 1.51%
CC1=C(C(N)=O)C(c2ccc(F)cc2)n2nc(-c3ccccc3Cl)nc2N1 (stereo not drawn) -9.94%
Cc1ccc(NC(=O)CCCn2c(=O)c3cccn3c3ccccc32)cc1C -8.82%
CC(C)CC(=O)n1nc(-c2cccnc2)nc1NCc1ccc(F)cc1 -3.61%
COCCCNC(=O)c1ccc(-n2c(-c3ccccc3)cc3c2CCCC3)cc1 -19.8%
COc1cccc(-c2nnc(SCC(=O)N3CCC(C)CC3)o2)c1 -7.18%
O=C(OCc1cc(=O)n2nc(C3CCCCC3)sc2n1)c1ccccc1Cl -0.708%
Cc1cc(C)n(-c2nc3ccccc3nc2Nc2ccc(Cl)c(C(=O)OC(C)C)c2)n1 -0.161%
COc1ccc(OCC(=O)OCc2cc(=O)n3nc(-c4cccs4)sc3n2)cc1 -3.55%
Cc1ccc(Cl)cc1NC(=O)Cn1c(=O)n(Cc2ccccc2)c(=O)c2oc3ccccc3c21 1.95%
Cc1ccc(CCNC(=O)CCCn2c(=O)c3ccccc3n(Cc3ccccc3C#N)c2=O)cc1 4.62%
CCn1cc2c(n1)-c1c(oc(C(=O)Nc3cccc(C)c3C)c1C)CC2 -0.213%
Cc1ccc(CNC(=O)CCc2c(C)nc3nc(C)nn3c2C)cc1 2.43%
Cc1ccc(OCC(=O)Nc2cccc(OCc3cc(=O)n4cccc(C)c4n3)c2)cc1C 1.17%
N#Cc1c(C(F)(F)F)cc(-c2cccs2)nc1SCC(=O)Nc1ccccc1F 10.1%
CCc1ccc(O)c(C(=O)c2cnc3cc(-c4ccc(C)cc4)nn3c2)c1 -3.5%
Cc1cc(C)cc(NC(=O)CSc2oc(-c3ccccc3)nc2S(=O)(=O)c2ccccc2)c1 -0.962%
CCOc1ccc(-c2cc(C(=O)NCc3ccccc3Cl)c3ccccc3n2)cc1 12.9%
Cc1cc(C)cc(NS(=O)(=O)c2ccc3[nH]cc(C(=O)NC4CCCCC4)c(=O)c3c2)c1 -10.7%
CCn1cc(S(=O)(=O)c2ccccc2)c(=O)c2cc(F)c(N3CCCC3)cc21 -4.71%
Cc1cc2nc(-c3cccc(NC(=O)C(C)C)c3C)oc2cc1C 3.33%
COc1cc(OC)c(OC)cc1/C=C/c1nc2cc3ccccc3cc2c(=O)n1-c1ccc(F)c(Cl)c1 -8.87%
CCc1c(C)nc(SCc2nc(-c3ccccc3)no2)[nH]c1=O 0%
O=C(c1cc(-c2ccccc2O)on1)N1CCCCC1 13.2%
O=C(c1ccc2c(c1)N(Cc1ccccc1F)C(=O)c1ccccc1S2(=O)=O)N1CCN(c2ccccc2F)CC1 -14%
CCN(CC)C(=O)c1sc2c(c1C)c(=O)n(CCc1ccccc1)c(=O)n2Cc1ccc(F)cc1Cl -2.23%
CCOc1ccc(C(=O)Nc2ccc3nn(-c4ccc(OC)c(Cl)c4)nc3c2)cc1 -1.62%
Cc1ccc(OCC(=O)Nc2cccc(-c3nc4ccccc4o3)c2C)cc1C -12.4%
COc1ccc2cc(-c3nc(Cl)c4c5c(sc4n3)CC(C)CC5)c(=O)oc2c1 (stereo not drawn) -6.13%
O=C(Cn1c(=O)n(-c2cccc(Cl)c2)c(=O)c2sc3ccccc3c21)NC1CCCCC1 -7.08%
CNC(=O)C1CCC(Cn2c(=O)c3sccc3n(CC(=O)NCc3ccc(OC)cc3)c2=O)CC1 (stereo not drawn) -2.81%
O=C(CSCc1ccc(F)cc1)N1CCN(c2ccc(Cl)cc2)CC1 6.3%
Clc1ccc(CN2CCC(CNc3ncnc4onc(-c5ccc(Cl)cc5)c34)CC2)cc1 -6.5%
COc1cc(OC)c(NC(=O)CCc2c(C)nc3ncnn3c2C)cc1Cl 6.15%
CCn1c(CN2CCC(C)CC2)nc2cc(NC(=O)COc3ccc(Cl)c(C)c3)ccc21 -7.45%
CN(Cc1ccccc1)c1ccc(-c2nc(-c3ccccn3)no2)cc1[N+](=O)[O-] -4.57%
COc1cccc(N2CCN(C(=O)c3cc4cc5cc(C)ccc5nc4s3)CC2)c1 -4.98%
COc1ccc(-c2nc(CSCC(=O)NCCc3ccccc3)c(C)o2)cc1 -17.7%
CCc1ccc(-n2c(SCc3ccccc3Cl)nc3[nH]ncc3c2=O)cc1 -9.21%
CCC(=O)N1c2ccccc2CC1C(=O)NCc1ccccc1Cl (stereo not drawn) 0%
Cc1cccc(NC(=O)CCn2cnnn2)c1C 6.31%
Cc1ccc(CNC(=O)c2ccc(Cn3c(=O)c4ccccc4n(CC(=O)Nc4ccc(C)cc4)c3=O)cc2)cc1 8%
Cc1cccc(NC(=O)Cn2cc(C(=O)c3ccco3)c3ccccc32)c1 0.172%
Cc1ccccc1OCCn1c(-c2ccc(Cl)cc2)nc2ccccc2c1=O -16.9%
O=C(NC1(C(F)(F)F)C(=O)Nc2c1c(=O)[nH]c(=O)n2-c1ccc(Cl)cc1)c1ccccc1F (stereo not drawn) -15.5%
COc1ccc(Cn2cc(S(=O)(=O)c3ccc(Cl)cc3)c(=O)c3cc4c(cc32)OCO4)cc1 -13.6%
CCc1ccccc1Nc1nn2c(=O)c3ccc(C(=O)NCCCOC(C)C)cc3nc2s1 -5.33%
O=C(Nc1ccc2oc(-c3ccncc3)nc2c1)c1ccccc1Cl -25.1%
Cc1oc(-c2ccc(Cl)cc2)nc1CSc1nc2ncccc2[nH]1 0.505%
O=C(OCc1cc(=O)n2nc(C3CCCCC3)sc2n1)c1ccc(F)cc1 -0.162%
CCOc1ccc(NC(=O)CC2C(=O)N(c3ccc(Cl)cc3)C(=O)N2Cc2cccs2)cc1 (stereo not drawn) -15.8%
COc1cccc(NC(=O)c2ccc(-c3nc(COc4ccccc4)c(C)o3)cc2)c1 3.07%
COC(=O)c1c(NC(=O)/C(C#N)=C/c2ccccc2)sc2c1CCC2 -6.61%
CCOc1ccc(NC(=O)c2sc3nc4c(c(-c5ccc(OC)cc5)c3c2N)C(=O)CC(C)(C)C4)cc1 -2.08%
CCOc1ccc(-n2cc(-c3ccccc3)c3c(N4CCN(c5ccccc5OC)CC4)ncnc32)cc1 9.32%
CCCCN(CC)C(=O)CSc1c2c(nc3ccc(Cl)cc13)CCCC2 -11.1%
COc1ccc(-c2noc(-c3cccnc3N3CCN(c4ccc(OC)cc4)CC3)n2)cc1 0.241%
CCOCCCNC(=O)CN1C(=O)COc2ccc(S(=O)(=O)N3CCCC3)cc21 -4.78%
CCOC(=O)c1c(C)[nH]c(C)c1S(=O)(=O)N1CCCC(C(=O)NCc2ccc(Cl)cc2)C1 (stereo not drawn) -0.697%
